Experimental data reported in PubChem BioAssay AID1508623 (National Center for Advancing Translational Sciences (NCATS), 2021).
Hit rate of the full screen: of about 48,000 compounds, about 450 (0.94%) were called active. Another 19% or so got no clear call; they are omitted. The call rests on the fitted dose curve; in most records, active means well fitted inhibition curve with a large enough effect; inconclusive means small, poorly fitted or top-dose-only effect; inactive means no such curve, though single readings can be large or run the other way. Some of the results follow.

Assay: Primary qHTS for Identification of Small Molecule Inhibitors of Huntingtin Promoter Activity; further: nearly all actives have a fitted effect of over 50% in size
Conditions: HEK293 HTT promoter firefly luciferase reporter (activity 0% = vehicle and -100% = no light), 24 h; series mostly up to 57.5 µM; activity change, negative = inhibition: at the top concentration
How it was run: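 HEK293 Fluc reporter, 2,500 cells/well, 24 h pre-culture; cpds up to 57.5 uM final, 24 h 37 degrees C; Dual-Glo, 10 min RT; normalized vehicle = 0%, zero RLU = -100%.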

Activity change, negative = inhibition, inactive:
CCn1ccnc1CC1COc2ccccc2O1 (stereo unspecified) 17.4%
CNC(=O)c1ccc(NC(=O)COc2ccc(-c3nn(C)c(=O)c4ccccc34)cc2)cc1 -6.92%
CCOC(=O)c1[nH]c2ccccc2c1NC(=O)c1cc(OCC)c(OCC)c(OCC)c1 -1.25%
Cc1cc(=O)n2nc(N3CCC(C(=O)NCc4ccc(Cl)cc4)CC3)sc2n1 -13.1%
CCOc1ccc(NC(=O)Cn2c(CCC(=O)O)ccc2-c2ccc(C)cc2)cc1 -2.61%
Clc1ccc(Nc2nc(-c3ccccc3)c3cc(Cl)ccc3n2)cc1 -3.77%
COc1cc(NC(=O)CC(C)S(=O)(=O)c2cc3c4c(c2)CCN4C(=O)CC3)cc(OC)c1 (stereo unspecified) -2.14%
Cc1ccccc1C(=O)Nc1cccc(C(=O)OCc2cc(=O)n3nc(C4CC4)sc3n2)c1 3.01%
COc1ccc(Cn2c(CO)cnc2SCC(=O)NCc2ccco2)cc1 -13.1%
Cc1ccc(C)c(CN2C(=O)c3ccccc3Sc3ccc(C(=O)NCc4ccc5c(c4)OCO5)cc32)c1 -20.7%
COc1cc2nc(SCC(=O)Nc3cccc(C)c3)n3nc(-c4ccccc4)nc3c2cc1OC -1.39%
COc1ccc(NC(=O)c2c(NC(=O)c3cccc(C)c3)sc3c2CCCC3)cc1 -14.4%
Cc1ccc([N+](=O)[O-])cc1S(=O)(=O)N1CCn2cccc2C1c1ccc(F)c(F)c1 (stereo unspecified) 5.23%
CC(=O)c1cccc(NC(=O)c2ccc3nc(C(C)C)oc3c2)c1 -20.2%
CCOC(=O)c1cc(-c2ccc(OC)cc2)nn1Cc1ccccc1 59.9%
Cc1ccc(CSc2nc3c(c(=O)[nH]2)C(c2cccc(F)c2F)CC(=O)N3)cc1 (stereo unspecified) -17.4%
COc1ccc(N2CCN(C(=O)c3nn(-c4ccc(C)cc4)c(=O)n(C)c3=O)CC2)cc1 -22%
CC(C)c1ccc(NC(=O)C(Cc2ccccc2)NS(=O)(=O)c2ccc3c(c2)CCC(=O)N3)cc1 (stereo unspecified) -13%
COc1cccc(CNC(=O)CN(C)S(=O)(=O)c2ccc3c(c2)c(=O)n(C)c(=O)n3C)c1 -9.05%
Cn1nnnc1SCCNCc1ccccc1Cl 6.95%
COc1cc2ncc3c(-c4ccccc4)nn(-c4ccc(C)cc4)c3c2cc1OC -12%
COc1ccc(NC(=O)c2sc3nc[nH]c(=O)c3c2C)cc1OC 7.22%
N#C/C(=C\c1ccc(-c2ccc(C(=O)O)cc2)o1)c1nc2ccccc2[nH]1 38.3%
COc1ccc(Cl)cc1NC(=O)Cn1cc(S(=O)(=O)Cc2cccc(Cl)c2)c2ccccc21 -29.2%
CCc1ccccc1Nc1nn2c(=O)c3ccc(C(=O)NCc4ccccc4Cl)cc3nc2s1 -34.4%
CCCCOc1ccc(C(=O)N(Cc2nc(-c3ccc(Cl)cc3)no2)C(C)C)cc1 -19.9%
